The campaign covered roughly 140,000 compounds. About 240 (0.17%) were called active. Inconclusive results, whose numbers are uncertain, are shown with a selection of clear calls. The call rests on the fitted dose curve; in most records, active means well fitted inhibition curve with a large enough effect; inconclusive means small, poorly fitted or top-dose-only effect; inactive means no such curve, though single readings can be large or run the other way. Potencies of inconclusive entries are doubtful fits and often do not repeat.
Test: Primary qHTS assay for inhibitors of alpha-synuclein gene (SNCA) expression; further: nearly all actives have a fitted effect of over 45% in size;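 on activity change, negative = inhibition: plate controls were DMSO cells for no effect and cell-free wells for full effect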
Details: HEK-293 SNCA-luciferase knock-in, luminescence, 24 h; activity change, negative = inhibition: at 57.2 µM (top of the series) unless noted
Potency means the concentration at half of the fitted maximal effect; tags describe the fitted curve by direction and shape.

Potency, inconclusive:
Cc1cc(C)c(Cn2c(C)c(CNCc3ccccc3C)c(C(=O)O)c2C)c(C)c1 35.5 µM [inhibitor, single point]
CCN1C(=O)c2ccccc2Sc2ccc(NC(=O)Nc3ccc(C(C)=O)cc3)cc21 17.8 µM [inhibitor, partial curve, poor fit]
CC1=C[C@@H](CNS(=O)(=O)c2ccc(Cl)cc2)[C@H](C(C)C)C[C@H]1CC(=O)N1CCOCC1 17.8 µM [inhibitor, single point]
Cc1c2cnn(CC(=O)O)c(=O)c2c(C)n1Cc1cccc(Cl)c1 3.98 µM [inhibitor, single point]
COCCNC(=O)[C@H]1C[C@H](Oc2ccccc2)CN1C(=O)c1ccco1 2.82 µM [inhibitor, single point]
Cc1ccc(Cl)cc1N1CCN(C(=O)c2cn(C)c3ccc(S(=O)(=O)N4CCC(C)CC4)cc3c2=O)CC1 8.91 µM [inhibitor, partial curve]
CCCN(C(=O)Cn1c(=O)oc2cc(Cl)ccc21)c1ccc(C(C)C)cc1 35.5 µM [inhibitor, single point]
Cc1cccc(C(=O)N2CCCC(N3CCN(c4cccc(C(F)(F)F)c4)CC3)C2)c1 (stereo unspecified) 7.94 µM [inhibitor, single point]
CCOc1ccccc1CNC(=O)CSc1n[nH]c(-c2ccccc2Cl)n1 39.8 µM [inhibitor, single point]
O=C(CC1CCCC1)N1CCC2(CC1)CC(N(Cc1ccc(F)cc1)C1CC1)CCO2 (stereo unspecified) 39.8 µM [inhibitor, single point]
CCOC(=O)C1=C(CN2CCN(c3cc(C)ccc3C)CC2)NC(=O)NC1c1ccccc1 (stereo unspecified) 39.8 µM [inhibitor, single point]
COc1ccc(N(C(=O)c2ccccc2C)S(=O)(=O)c2ccc(C)cc2)cc1 44.7 µM [inhibitor, single point]
CCOC(=O)c1ccc(NC(=O)Cn2c(C)cc3nc4n(c(=O)c32)CCCC4)cc1 7.08 µM [inhibitor, single point]
C#CCNC(=O)CC[C@H]1CNC(=O)[C@@H]2[C@@H](CCN2Cc2ncc[nH]2)N1C 7.08 µM [inhibitor, single point]
CN(C)CCCn1ccnc1C1CCCN(S(=O)(=O)N2CCCC2)C1 (stereo unspecified) 28.2 µM [inhibitor, single point]
COc1cccc(CN2C(=O)C3(SCC(=O)N3c3cc(C)cc(C)c3)c3ccccc32)c1 (stereo unspecified) 22.4 µM [inhibitor, single point]
COc1cc(OC)c(OC)cc1/C=C/c1nc2ccccc2c(=O)n1-c1ccc(Br)c(C)c1 39.8 µM [inhibitor, single point]
COc1ccc(CCNC(=O)C(=O)NCC(c2cccnc2)N2CCN(c3ccccc3)CC2)cc1 (stereo unspecified) 17.8 µM [inhibitor, single point]
CCC(C(=O)NCCc1ccc(Cl)cc1)n1ccc2cc(S(=O)(=O)N3CCCCC3)ccc21 (stereo unspecified) 31.6 µM [inhibitor, single point]
CCc1ccc(CNC(=O)c2ccc(CS(=O)(=O)Cc3cccc(C)c3)o2)cc1 7.08 µM [inhibitor, single point]
CCCNC(=O)N(C1CCOCC1)C1CCN(C(=O)c2ccc(F)c(F)c2)CC1 8.91 µM [inhibitor, single point]
COc1ccc(C(=O)N2CCN(c3nc4c(C)c(Cl)ccc4s3)CC2)c(OC)c1 2.24 µM [inhibitor, full curve]
CCc1csc(CNC(=O)C(CC)n2cc(C(C)=O)c3ccccc32)n1 (stereo unspecified) 39.8 µM [inhibitor, single point]
CCOc1ccc(NC(=O)CN2C(=O)NC3(CCC(C)CC3)C2=O)cc1 (stereo unspecified) 2.51 µM [inhibitor, full curve, poor fit]
Cc1cc(=O)n(CC(=O)NCc2ccc(F)cc2)c(N2CCc3ccccc3C2)n1 39.8 µM [inhibitor, partial curve, poor fit]
COc1ccccc1CN1CCNc2cc(Nc3ccccc3)ncc2C1 22.4 µM [inhibitor, partial curve, poor fit]
CCOc1ccccc1-c1nc(C(N)=O)c2c(n1)n(-c1ccc3c(c1)OCO3)c(=O)n2C 2 µM [inhibitor, partial curve, poor fit]

Activity change, negative = inhibition, inactive:
COc1ccc(CCNC(=O)C2CCCCN2Cc2ccc(-c3cccs3)cc2)cc1 (stereo unspecified) -10.3%
COc1ccc(-c2cn3cc(C(=O)NCc4cccs4)nc3s2)cc1 1.9%
COc1cccc(-c2ccc(C(=O)N3CCC(N[S+](C)(=O)[O-])CC3)cc2)c1 10.4%
COc1ccc(C(=O)N2CCCC(C(=O)N3CCC4(CC3)CC(=O)Nc3ccccc3O4)C2)cc1 (stereo unspecified) 1.45%
O=C(COc1ccccc1)N1CCC2(CC1)CN(c1ncccn1)CC2CO (stereo unspecified) -13.9%
Cc1ccc2c(C(=O)N3CCN(c4ccc(F)cc4)CC3)cc(NC(=O)C(C)C)cc2n1 -2.14%
O=C(Nc1ccc(-c2nnc3n2CCCC3)cc1)c1ccn[nH]1 -2.49%
COCCNC(=O)c1ccc2c(c1)N(C)C(CC(=O)NCC(F)(F)F)CO2 (stereo unspecified) -14.4%
O=C(Nc1cc(F)cc(F)c1)N1CCC(CCNC(=O)C2(c3ccccc3)CC2)CC1 -10.8%
COc1ccc(CN2CCC3(CC2)CC(c2cccc(C(F)(F)F)c2)=NO3)cc1 2.08%
COc1cc(CNC(=O)[C@@H]2COCC(=O)N2Cc2ccc(C)cc2)cc(OC)c1 11%
CCc1noc(-c2ccn3c(CNC(=O)Cc4ccccc4Cl)nnc3c2)n1 2.41%
COc1ccc(S(=O)(=O)N2C[C@@H](F)C[C@H]2C(=O)N2CCc3ccccc3C2)cc1 -27.4%
CC(C)CCNC(=O)c1ccc2c(c1)nc1n2CCCCC1 -82.1%
